Data from PubChem BioAssay AID894 (National Center for Advancing Translational Sciences (NCATS), 2007).
In all, about 150,000 compounds went through this assay and about 6,500 (4.3%) were called active. The shares of active, inactive and inconclusive entries below differ from those in the screen. Calls come from the whole dose curve; as a rule, active = well fitted inhibition curve with a large enough effect (not every such curve was filed as active); inconclusive = small, poorly fitted or top-dose-only effect, or another doubt; inactive = no such curve, though single readings can be large or run the other way. No potency is given beside an inconclusive call; the fits are too rough.

Molecular target: 15-hydroxyprostaglandin dehydrogenase [NAD(+)] (Homo sapiens) (UniProt P15428)
Chain of UniProt P15428 (P15428 whole entry, looked up): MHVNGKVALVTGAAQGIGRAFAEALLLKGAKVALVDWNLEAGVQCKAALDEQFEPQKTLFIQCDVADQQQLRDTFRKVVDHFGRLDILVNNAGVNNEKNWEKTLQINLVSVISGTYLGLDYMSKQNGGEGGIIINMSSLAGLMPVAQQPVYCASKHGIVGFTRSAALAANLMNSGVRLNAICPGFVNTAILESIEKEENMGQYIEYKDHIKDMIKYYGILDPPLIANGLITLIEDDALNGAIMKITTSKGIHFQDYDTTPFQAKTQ
Assay: qHTS Assay for Inhibitors of HPGD (15-Hydroxyprostaglandin Dehydrogenase)
Settings: purified HPGD, NADH fluorescence kinetic, PGE2 substrate; activity change, negative = inhibition: hits give low values
Outline: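 20 nM HPGD preincubated 15 min at room temperature with compound in 50 mM Tris-HCl pH 8, 0.01% Tween 20. Started with 1 mM NAD+ and 30 uM prostaglandin E2; NADH fluorescence (360/450 nm) read 5 times over 30-s intervals, last minus first.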
% is set by controls: 0 for no effect and ±100 for the full control effect; potency is the fitted concentration of half-maximal effect; tags give direction and shape of the fitted curve.

Structure (SMILES)	activity change, negative = inhibition	Potency
COc1ccc(N2CCN(C(=O)c3ccc(C)cc3)CC2)c([N+](=O)[O-])c1	inactive: -26.3%	
COc1ccc(-c2cn3cc(C)ccc3n2)cc1OC		inconclusive [inhibitor, partial curve]
CCCCNC(=O)COc1ccccc1C(=O)c1cc(C#N)c(=O)n(CCOC)c1	inactive: -12.7%	
CCOC(=O)CNC(=O)O[C@@H]1C(=O)c2ccc(OC)cc2O[C@H]1c1ccc2c(c1)OCO2	inactive: -4.75%	
O=C(Nc1ccc2oc(-c3ccccc3)nc2c1)c1cccs1		inconclusive [inhibitor, single point]
C/C(=N\NC(=O)c1ccccc1O)c1ccc(Br)s1		active: 31.6 µM
CCSC1=NC2(CCCCC2)Nc2sc3c(c21)CCCC3		active: 4.47 µM
COc1cc(/C=C\C(=O)NCc2ccc3c(c2)cc(C)n3C)cc(OC)c1OC		inconclusive [inhibitor, partial curve]
CN(c1ccc(C(=O)Nc2nccs2)cc1)S(=O)(=O)c1ccccc1		active: 8.91 µM
Cc1ccc(C)c([C@@H]2NC(=O)c3ccccc3N2)c1		inconclusive [inhibitor, single point]
O=C(COc1ccccc1)NCCSCc1ccco1		active: 22.4 µM
CC1CCCCC1NC(=O)CSc1nnc(N)s1 (stereo not given)		active: 17.8 µM
Cc1ccc(S(=O)(=O)NCCNC(=O)c2cc(OCC(F)(F)F)ccc2OCC(F)(F)F)cc1		inconclusive [inhibitor, single point]
CN1C(=O)CC(N2CCN(c3ccc(Cl)cc3)CC2)C1=O (stereo not given)		inconclusive [inhibitor, single point]
CCCNC(=O)c1c(N)n(-c2ccc3c(c2)OCO3)c2nc3ccccc3nc12	inactive: -20.4%	
O=C(Cc1ccccc1)NCCC1=CCCCC1		inconclusive [inhibitor, single point]
CCS(=O)(=O)c1nnnn1-c1ccccc1S(C)(=O)=O	inactive: -4.77%	
CC(C)C(NC(=S)Nc1ccccc1)C(=O)O (stereo not given)		active: 31.6 µM
CC(c1ccccc1)n1cc(C(=O)NCc2ccccn2)nn1 (stereo not given)	inactive: -3.91%	
Cc1nc2cnc(N3CCNCC3)nc2n(CCC#N)c1=O		inconclusive [inhibitor, partial curve]
O=C(COc1ccc(Cl)cc1Cl)Nc1nc2n(n1)C(c1ccccc1)CC(=O)N2 (stereo not given)		inconclusive [inhibitor, single point]
COc1ccccc1-c1c(C)oc2c(CN3CCN(C)CC3)c(O)ccc2c1=O		inconclusive [inhibitor, partial curve]
O=C(NNc1ccc([N+](=O)[O-])cc1)C12CC3CC(CC(C3)C1)C2	inactive: -6.29%	
CCC(C)(C)NC(=O)c1ccc2c(c1)S(=O)(=O)c1ccccc1C2=O		active: 25.1 µM
CC(C)c1cc(NCC2CCCO2)n2c(nc3ccccc32)c1C#N (stereo not given)		inconclusive [inhibitor, partial curve]

Structure (SMILES)	activity change, negative = inhibition	Potency
COc1ccccc1Nc1nc(N)nc(CN2CCCCCC2)n1		inconclusive [inhibitor, partial curve]
CCOC(=O)c1cc(-c2ccccc2)sc1NC(=O)C(C)C		inconclusive [inhibitor, partial curve]
COc1ccc(Nc2oc(-c3ccc(Cl)cc3)nc2C#N)cc1		inconclusive [inhibitor, single point]
CC(C)(C)c1nc2c(C#N)c(-c3ccc(Cl)cc3)ccn2n1		inconclusive [inhibitor, partial curve]
O=C(NCc1ccco1)c1ccc2c(c1)C(=O)c1ccccc1-2		active: 15.8 µM
COc1ccc(S(=O)(=O)N2CCN(c3cc(-c4ccccc4)nc4ncnn34)CC2)cc1		inconclusive [inhibitor, single point]
Cc1nc(NCc2ccccc2)c2nc(-c3ccccc3)n(CCN3CCOCC3)c2n1		inconclusive [inhibitor, partial curve]
O=C(CCl)N1c2ccccc2OCC1c1ccccc1 (stereo not given)		active: 31.6 µM
COc1cc(OC)cc(-c2cc3nc(C)c(CCC(=O)Nc4nc(C)cs4)c(C)n3n2)c1		inconclusive [inhibitor, partial curve]
COc1ccc(CN(Cc2cc3cc4c(cc3[nH]c2=O)OCO4)C(=O)NC2CCCCC2)cc1		inconclusive [inhibitor, single point]
Cc1cccc(Cn2c(C(C)(C)C)cc3cccnc32)c1	inactive: -9.58%	
Cc1cccc(C2=NN(c3ccccc3)[C@@H](C(=O)N3CCOC3=O)[C@@H]2c2ccc(Cl)cc2)c1		inconclusive [inhibitor, partial curve]
Cc1cc2cc(CNC(=O)c3cccs3)ccc2n1C		active: 2.82 µM
O=[N+]([O-])c1cc(/C=N/n2c(-c3cccnc3)n[nH]c2=S)ccc1Cl		active: 3.98 µM
O=C(CCl)Nc1cccc(-c2cnc3ccccc3n2)c1	inactive: -15.1%	
CN1CCN(CCCNC(=O)CCCOc2cc(=O)n(C)c3ccccc23)CC1	inactive: 6.61%	
O=C(CSCc1c(F)cccc1Cl)NCc1ccco1		active: 14.1 µM
O=C(CCC(=O)c1cccs1)NCc1ccccc1		active: 31.6 µM
Cc1ccc(-c2cc(-c3ccccc3)c(C#N)c(Br)n2)cc1		inconclusive [inhibitor, partial curve]
CC(=O)c1cc2c(cc1N/C(=N/S(=O)(=O)c1ccc(C)cc1)c1ccccc1)OCO2		inconclusive [inhibitor, single point]
CCOc1ccc(-c2nc(-c3ccc(OC)cc3)no2)cc1OCC		inconclusive [inhibitor, single point]
c1ccc(-c2n[nH]c3ccccc23)cc1		active: 14.1 µM
Cc1ccccc1CSc1nc2c(c(=O)[nH]1)CCC2		active: 3.55 µM
COc1ccc(N2C(=O)C(Cl)=C(Nc3c(C)n(C)n(-c4ccccc4)c3=O)C2=O)cc1		inconclusive [inhibitor, single point]
CC1(C(=O)Nc2nnc(SCc3ccccc3)s2)Cc2ccccc2C(=O)O1 (stereo not given)		active: 28.2 µM

Structure (SMILES)	activity change, negative = inhibition	Potency
CCN1CCN(C(=S)c2ccc(Cl)c(Cl)c2)CC1		inconclusive [inhibitor, single point]
COCc1cc(=O)n2c([nH]c3ccccc32)c1C#N		inconclusive [inhibitor, partial curve]
CCCC(C)NNC(=O)c1cc2ccccc2[nH]1 (stereo not given)		active: 12.6 µM
COCCNC(=O)c1cnn2c1NC(c1ccco1)CC2C(F)(F)F (stereo not given)		active: 25.1 µM
CCc1ccc(-c2nc(CSCC(=O)N3CCN(c4ncccn4)CC3)c(C)o2)cc1		inconclusive [inhibitor, partial curve]
Cc1cc(C)c2nc(SC(C)C(=O)NCC(=O)Nc3ccc(F)c(F)c3F)cc(C)c2c1 (stereo not given)		inconclusive [inhibitor, partial curve]
Cc1cc(N2CCN(c3ccccc3)CC2)n2cc(-c3ccccc3)nc2n1		inconclusive [inhibitor, partial curve]
CC(C(=O)NC1CCCC1)N(C(=O)c1snc(C(N)=O)c1N)c1ccc2c(c1)OCCO2 (stereo not given)	inactive: -19.6%	
O=C(CNC(=O)c1ccc(F)cc1)N/N=C/c1cc(Br)ccc1OCc1ccccc1	inactive: -11.4%	
CCCC(=O)Nc1ccc(NC(=O)c2cccc(OC)c2)nc1	inactive: 3.92%	
O=C(N/N=C/c1ccc(O)cc1)c1ccc(NC(=O)c2ccccc2Br)cc1		active: 14.1 µM
CCCc1nnc(NC(=O)c2ccc(N3C(=O)C4C5C=CC(C5)C4C3=O)cc2)s1 (stereo not given)	inactive: -18.4%	
O=C(Nc1nc(-c2ccccc2)cs1)c1ccccc1NS(=O)(=O)c1ccc(F)cc1		inconclusive [inhibitor, partial curve]
Cc1oc2c(CN(C)C)c(O)ccc2c(=O)c1-c1cscn1		inconclusive [inhibitor, partial curve]
CCCCN(CCCC)S(=O)(=O)c1ccc(C(=O)Nc2nnc(COC)o2)cc1	inactive: -2.6%	
CC(C)(C)NC(=O)CC(c1ccccc1)c1ccccc1O (stereo not given)	inactive: -22.8%	
CCN(CC)S(=O)(=O)c1ccc2oc(C(=O)NCC3COc4ccccc4O3)c(C)c2c1 (stereo not given)	inactive: -23.8%	
CCOc1ccc2[nH]cc(C(=O)N3CCN(CC)CC3)c(=O)c2c1		inconclusive [inhibitor, partial curve]
Cc1ccc(C)c(NC(=O)c2sc(Cl)nc2C)c1	inactive: -13.2%	
Cc1ccccc1C(=O)Nc1ccc(-c2nc3ccc(C(=O)c4ccccc4)cc3[nH]2)cc1		inconclusive [inhibitor, partial curve]
Cc1ccc(S(=O)(=O)Cn2nnnc2CN2CCOCC2)cc1	inactive: -3.49%	
Cc1cccc(NC(=O)c2cc(NC(=O)c3ccccc3)ccc2N2CCCCC2)c1		inconclusive [inhibitor, partial curve]
O=C(/C(=N/N=C/c1ccc(O)c(O)c1)c1ccccc1)c1ccccc1	inactive: -18.1%	
Cc1ccc(-c2nc3ncccc3o2)cc1NC(=O)COc1ccccc1		inconclusive [inhibitor, single point]
CC(NC(=O)/C(C#N)=C/c1cn[nH]c1-c1ccccc1)c1ccccc1 (stereo not given)		active: 14.1 µM
